In all, about 2,300 sequences were measured (“median log2 fold change of GCK-ALFA target abundance (FLAG IP / Myc IP barcode read proportion)”: median about 0.095, lowest 2% from about -0.47 on). The list shows a part of the results.
B1: LC3A_132_285 (protein)
chain: GEAARDAAVAKVKELLDEAEKNIDDEEKVRKLLEELKKYLEEVEKTESPEVVRAASETAADGLEKLSEKLEEKGKEELALEADSLAIEAESRALRAEEAL
B2: LC3A_28_850 (protein)
chain: SALDEQLAANLEKVKAAAAKGEEVTVTITVTSTTTLEDAKRIAAGMEEIVEAGKDLPRLTIIVDATEPIAQEVLTLLADTGDRLEEKYPNVTVIIALPEE
B3: LC3A_free_2_2168 (protein)
chain: ARYKVTVDVLGHAAGVAALFDVLAEAGLEVTVTYEDGTVERGSAAEHAARMRELAARGETVLVTIEFETDKATAEAVAAALDEVAERTGVAALIDIEKIA
B4: LC3A_127_221 (protein)
chain: MLEELLKLAEEAAELAREAIEDPSLDKLETLEKIEKLLEEALKLAKEAGVPEEVIEDIKQAIKLAEEAKKKSPEEQLETLRQLELLADGIAIELESLILK
B5: LC3A_free_0_2101 (protein)
chain: KTVVIEVVAISKEKISEEKLKKLKEKLKELAEKISEKYNAEVEVEIKEVDGRTVVTIKVKLEGMSIEEALEIADEIADEVEKIFKELGIEATIYVSVYEE
B6: LC3A_28_1169 (protein)
chain: SETEENAEKALKEAEEAKAKGEPAVITISLPSGATEEEVELVIETMEKIAELLKDIPGAAIIVDVDSGVKEEHLNKIMDKAEEIEEKYPNVSVIIALDED
B7: LC3A_28_711 (protein)
chain: GEIEANIAAALAEAEAAAAAGEEVVVTIKVPGTATEEDIEKVIAALERIAEILKDLKSAAIVVDVDGKVPQEYIDKLADAAEEIEKKYPNVTVIIALEES
B8: LC3A_23_600 (protein)
chain: MVTVEADHVVKNDPELAEEKTKKLLEEIKKILEKNKDYIKDYKIEVEFYTDEDGNTVVRITVTVKVKDDPEKAQEIANELISAFDEILPDAVIAYDVEED
B9: LC3A_28_715 (protein)
chain: SELEKSIEEALEKAKKAAEEGEEAVITIKVKGKATEEETEKVIEAIEEIAKITKDLKSTSIIVDIDGEVPQEHINKIMDKGEEVEKKYPNVTVIFALDEE
B10: LC3A_3_1780 (protein)
chain: MEERERELLERLRAAGKSEETLEAAREALELLREKGYEEARETFLEEAERLIDVPDELFLEFLEEVLELLKNEDLSEEELTEEIKRLARLTLSESEIIEL
B11: LC3A_28_899 (protein)
chain: GSALASAEAALAEVKAAVAAGDTSPLVVEVDAPSREEDTEKFLELLEELAEVASQRKGVTIIIDVSEDVPQENIDKIIDKAEEIEKKYPNVTVIIALPEN
B12: LC3A_13_336 (protein)
chain: MIKIEVETPEKLKKEVLKAIEENPGETIEITVTVKTEEDVDKFAEALEEVIDKAIEKGNKLNITIKGKRDNVLELSLLVGSYIAEHIDEADVTVSLEILP
B13: LC3A_3_1892 (protein)
chain: LEERVEETVERLKEAGASEETIELFLEAAELLLERGYYEALETLIDEVEELIDLPDEILLDFLEEVLEVLETEDLSEEELIERIKELARLAKNEGEIEEL
B14: LC3A_3_1516 (protein)
chain: MEELIKETLEKLKEAGKSEEVIEAVKEAMEELAEKGYEEALKVFAEEVEKLLDAPDEILLAFAEEVLELIKTSDLSEEELIKKIKELARTALAESEIIEL
B15: LC3A_3_1772 (protein)
chain: MEEKLERYRKLLEEAGFSEEVIEEALKAIKTFLEKGREEVAETFLELMLEAKDLPEDKLLVMASMALELAETSTVSEEELKKELTRTFENIAGIEELDEE
B16: LC3A_3_1699 (protein)
chain: MEELLARARAILEAQGRSPETTEAALRALRALLERGYEEAAERLLELLEESKDLSDEILLAFFEDVLRYVEEEDVDEEEAIEFIEEEYEIAKNEEEIIEL
B17: LC3A_17_540 (protein)
chain: MEELRRELAELLDRAEALVDRLAPYAPETAARARERLRRARELLEAGELREAAELLAETADEVADAVDELDWPDEDLRNLLADEFDALAIEADSILLKLE
B18: LC3A_3_1819 (protein)
chain: MEEEREETLEELREAGASEETLEAVDRAIRALLEKGYEEAARTFIELMRELKDLPSELLLELAREVLELIETSDDSEEEMKERIREIARTVRHEAEIIEL
B19: LC3A_28_975 (protein)
chain: SEIEEEIKKALAEAKAAAAAGEPTVITITVPGTATQEEVEKVIEALEEIAEILKDVPGSAIIIDLVGGVKQENRDKLAKAAEEIEKKYPNVTVIIALDEE

These binders were tested against MAP1LC3A, Q9H492 (assay: median log2 fold change of GCK-ALFA target abundance (FLAG IP / Myc IP barcode read proportion) (log2 ratio); each designed protein is fused to an ALFA-tag nanobody in HEK293 cells to bring the named protein to FLAG-tagged glucokinase (GCK); Myc marks an untargeted standard; higher = target protein stabilised (more abundant)). Details: target protein: 3xFLAG-MCP-GCK-ALFA reporter; HEK293 landing pad (RPLP).
Outline: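 An ALFA-nanobody-fused binder library was recombined into HEK293 landing-pad cells and induced with 2 μg mL^−1 doxycycline. Cells were transfected with a plasmid expressing a FLAG-tagged target and a Myc-tagged standard. After 48 h, lysates underwent anti-FLAG and anti-Myc immunoprecipitation, and circular RNA barcodes were reverse transcribed, amplified and sequenced. Target abundance is the per-binder median log2 ratio of FLAG to Myc barcode read proportions. Barcodes needed ≥10^−7 proportion in both replicates, binders ≥3 barcodes per replicate, and a 10^−6 pseudocount was added; the two replicates were pooled.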

Binder | median log2 fold change
B1 | 0.315
B2 | 0.226
B3 | 0.0505
B4 | 0.0664
B5 | 0.108
B6 | -0.195
B7 | 0.11
B8 | -0.566
B9 | 0.128
B10 | 0.259
B11 | -0.215
B12 | -0.122
B13 | -0.691
B14 | 0.181
B15 | 0.318
B16 | 0.0634
B17 | -0.365
B18 | 0.335
B19 | 0.21
